# Source: the supplement of paper PMC10185492
# The other results are listed elsewhere or left out. Values come from read counts of a selection and are noisy.
# System: SARS-CoV-2 3CLpro (nsp5)
# Assay: substrate phage enrichment score (protease-eluted vs HEPES control, +1 offset) (ratio); higher = better cleaved substrate
# Settings: selection round: 3; protease elution time: 0.5 h
# Protocol: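 Random heptapeptide substrate phage display (M13 pIII fusion, heptapeptide between an N-terminal biotinylated AviTag GLNDIFEAQKIEWHE and pIII; phages immobilised on streptavidin) eluted by cleavage with 50 nM protease in 20 mM HEPES at 37 °C. Selected phages were NGS sequenced, and the enrichment score is (reads in protease sample + 1)/(reads in HEPES blank-selection control + 1).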
row,Substance,substrate phage enrichment score
1,RCVDKPI,7
2,YCQGGSA,5
3,LESIPSR,1.21
4,IQPSWKS,7.38
5,SEGRNAA,> 23
6,AVKAKES,12
7,RNGLNVQ,6.17
8,TRGVPSK,3.14
9,SNAAAHH,0.48
10,GVRCTRT,> 33
11,KYITELQ,> 134
12,AVLQASG,23.5
13,SPHIGLC,5.5
14,SHCGTTT,> 27
15,YGYEHHG,> 35
16,LNAGDVK,0.846
17,ALEGQVK,> 55
18,PETVLMQ,> 21
19,AGSGEAG,2.18
20,EEVRHMP,> 22
21,AVEARNM,7.11
22,APLTGRC,> 25
23,ARGETTP,2.25
24,VSREILG,18.5

row,Substance,substrate phage enrichment score
1,FHASKPR,> 39
2,QAGPYGR,5.44
3,KSQLNID,11.7
4,MQQQPLG,0.136
5,SERFLHW,1.3
6,SQVILQA,37.3
7,VHLQARC,> 41
8,PPCVILQ,> 425
9,WQRVPSR,3.23
10,SSDCVIP,> 30
11,KRGTNLC,> 34
12,IRPSDAE,8
13,ERHIESH,3.8
14,LYFHGGS,2.42
15,FEAAHHH,1.05
16,TYTSEVQ,1.2
17,RPVVPEK,3.62
18,TRIPQPC,3.4
19,RFVEWRP,1.93
20,THWTGCW,2.1
21,ADSRKRP,> 51
22,RSYPKNP,> 40
23,RNFRSER,5.75
24,PPAAHHH,0.941

row,Substance,substrate phage enrichment score
1,PASAHHH,15
2,YQKHGSR,> 35
3,PAILQSG,> 27
4,ICIYDER,1.8
5,TWAAHHH,7.73
6,YEDWIRG,2.25
7,APVIHYD,5.25
8,KHYAKPV,2.4
9,TGIGATS,8.33
10,RATQSGR,10
11,AELQCNV,> 27
12,SPTDDLW,> 21
13,LICWCHR,13
14,VACLQAS,> 27
15,PKGDISR,1.82
16,HGRTPSD,0.235
17,YECTSKK,15.5
18,VHRSGPT,> 24
19,QKRTTLQ,> 336
20,LGPHIII,1.11
21,SRTPDEG,3.8
22,RHEATSD,3.5
23,RESRLQS,17
24,THTRGTS,> 23

row,Substance,substrate phage enrichment score
1,CAAAHNH,1.06
2,HRTTPLQ,11.5
3,LCIPNLQ,> 31
4,WHSTDKA,1.25
5,AAQIHTR,> 23
6,LSNYEDW,1.7
7,QRVPHLK,3.29
8,AQPVTSS,> 29
9,TEHHSTE,1.25
10,RDMNPKS,> 26
11,RVWKPHP,5
12,REPNFQG,2.62
13,QKYVLPT,3.33
14,FYGPKTV,1.38
15,SLAAHHH,2
16,SGRVKMT,11.8
17,PSAAAHH,0.696
18,LHVMLQC,> 22
19,PAAQDTR,2.25
20,ECCLQGG,> 21
21,RVELLEP,11.3
22,LESSGTQ,2.75
23,AHTEWRD,1.91
24,LLIRSCR,> 109

row,Substance,substrate phage enrichment score
1,AYLQGGS,5.25
2,LYFQCGS,1.82
3,SNSCGSA,26.3
4,DPAAHHH,0.782
5,HIYKLNS,1.5
6,CAAAHQQ,0.634
7,PALQSST,> 179
8,RHDTKPR,1.75
9,AKNSLWQ,> 25
10,ASALGCS,> 27
11,SAAARHH,1.39
12,PVSHAPQ,> 49
13,SATAHHH,1
14,PSSTTLQ,112
15,TTYEVPG,> 23
16,AWGDTSR,2.22
17,ASSGYPT,1.88
18,SPRAICQ,> 124
19,PSSHQKS,20
20,NESNVKI,1.5
21,LREVQAK,1.36
22,YADVNAW,> 28
23,SWEEKCG,1.4
24,RTRSCLQ,> 46

row,Substance,substrate phage enrichment score
1,TDAAHHH,1.24
2,LRVETHD,7.09
3,AKYQPLR,20.5
4,SAAVHHH,1.11
5,EYFQGGS,0.833
6,ARTGTPP,2.35
7,MRPAVKS,2.75
8,RKESSHP,3.6
9,VGQSYSP,> 29
10,PRAVLQC,> 51
11,LTGVNGA,0.762
12,NQCSHMT,> 28
13,DASTRLQ,> 46
14,KKSASLN,> 29
15,FTTNSAH,1.44
16,EVKATLH,7
17,VETPDSL,0.526
18,VKCSLCD,> 25
19,GDDKFRI,1.33
20,HLHCRRQ,> 25
21,TVERLPG,4.75
22,PTCKKKW,> 28
23,NTPSTKD,39.5
24,KHGNLSE,> 28

row,Substance,substrate phage enrichment score
1,ESRARLQ,> 54
2,NRGAYHS,9.75
3,SMQCIGP,> 23
4,QAGALHD,0.684
5,CSGNKPP,4.8
6,HHHHGAA,0.786
7,SRYQRSG,1.64
8,HALLQSG,> 57
9,SSQPCRQ,> 263
10,CCLLQSA,> 24
11,ATSAHHH,0.923
12,VEPPLNF,2.2
13,SPTPVLQ,> 45
14,NHFGELK,0.412
15,PTRWSAR,2.43
16,SEAKASA,2.11
17,PVTQAIP,> 43
18,AKGPLGT,3.6
19,RNRNNKN,13
20,CMAAHHH,1.04
21,CSKLRTH,4
22,VAAHHHH,0.817
23,THATGDV,4.5
24,TAQTNRL,0.636

row,Substance,substrate phage enrichment score
1,TASGARG,46
2,VNEWRST,> 38
3,GTSTQLH,> 40
4,SETTILQ,> 29
5,YQAAHHH,0.464
6,RPTSKSP,> 24
7,GTAGCWR,1.5
8,HCLLHAD,> 21
9,CILQGGS,> 33
10,SQDTWTG,3.38
11,DSIQLQS,5.57
12,MRPTKHT,7.14
13,ATRSRLQ,> 83
14,YGQRRPE,0.36
15,PNEDGCR,1.27
16,RLNHCGA,1.36
17,PSGGARQ,2.44
18,ARDSWAW,3.67
19,ITAAHHH,1.11
20,ENEIICF,3
21,PAQDCKR,11
22,AHFLGPQ,> 22
23,QYLQARG,> 24
24,SAAAQNH,1.32

row,Substance,substrate phage enrichment score
1,CSPRLYR,1.11
2,YGDRDDS,> 26
3,TLRGTEG,> 34
4,YVHESSL,1.44
5,QGWRKPR,> 42
6,VWPHIII,1.2
7,STSAHHH,7.67
8,RVREAPQ,5.75
9,TPYSKLQ,423
10,EEICRMQ,> 29
11,VVVRPHI,0.588
12,QLCMPGM,0.688
13,HRNSDLT,4.57
14,RAAETVP,0.833
15,ATNVILQ,> 85
16,AECGQAK,> 24
17,REVISDG,0.917
18,KHAEFTR,> 36
19,VGTWKGA,> 30
20,AAPWVPW,2.92
21,PLTKNCV,> 36
22,DPINQTT,1.1
23,LRSGTTI,6.6
24,APNECMS,18.5

row,Substance,substrate phage enrichment score
1,GVLICRR,> 28
2,LGQTLYD,4.75
3,QSKAEYA,10.5
4,AQYFQGG,2.88
5,GPVRERP,8.43
6,RAAAHHH,1.11
7,AKRPQVP,0.111
8,EQKPTPC,> 21
9,RGDCARG,> 21
10,PSHATHG,> 24
11,WCLPSLQ,> 23
12,CSLEGRT,> 25
13,SASAHHH,0.645
14,TGSCTLQ,> 36
15,SSPAAHH,1.2
16,CNHELTG,4.5
17,TATGTVG,0.333
18,QEAAHHH,0.75
